{"source": "the supplement of paper PMC10126150", "note": "Sequences with one replicate were seen in a single cluster, so their values are uncertain.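 Note: ATP exposure 15 min at 22 °C before imaging.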"}
{"test_system": "ATP", "experiment": "switch fluorescence ratio, 500 uM ATP over buffer (Cy3 cluster intensity, sum of 5 cycles each) (fold (ratio)); higher = stronger signal-on switching upon ATP binding; sequences stand for … in TCGTCGGCAGCGTCAGATGTGTATAAGAGACAGTTTTTTTTTTTTTTTTTTTTTTTTT…TC", "details": "aptamer strand: ATP DNA aptamer (quencher-CACCTGGGGGAGTATTGCGGAGGAAGG + anchor), 100 nM annealed; ATP concentration: 500 uM; one replicate", "in_short": "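After annealing to 100 nM quencher-labelled ATP aptamer, Cy3-labelled switching-strand clusters on a modified Illumina MiSeq flow-cell were imaged in selection buffer. A second image followed after 15 min with 500 uM ATP at 22 °C, and five such buffer/ATP cycles were done, each separated by NaOH stripping and re-annealing. The fluorescence ratio, averaged per switch-domain sequence, is summed target-cycle over summed buffer-cycle Cy3 intensity per cluster, with clusters outside 100-1000 RFU excluded.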"}
{"sequence": "CTCTGACGCG", "switch fluorescence ratio": 0.978}
{"sequence": "CTCTGATACT", "switch fluorescence ratio": 1.32}
{"sequence": "CTCTGGGATT", "switch fluorescence ratio": 0.971}
{"sequence": "CTCTGGGGGT", "switch fluorescence ratio": 0.977}
{"sequence": "CTCTGTATCA", "switch fluorescence ratio": 1.04}
{"sequence": "CTCTTAAAAG", "switch fluorescence ratio": 1.01}
{"sequence": "CTCTTAGGGC", "switch fluorescence ratio": 0.943}
{"sequence": "CTCTTCCTTT", "switch fluorescence ratio": 1.31}
{"sequence": "CTCTTCTACC", "switch fluorescence ratio": 1.12}
{"sequence": "CTCTTCTCGA", "switch fluorescence ratio": 1.06}
{"sequence": "CTCTTGAAGA", "switch fluorescence ratio": 0.955}
{"sequence": "CTCTTGAAGT", "switch fluorescence ratio": 0.996}
{"sequence": "CTCTTGGATA", "switch fluorescence ratio": 0.95}
{"sequence": "CTCTTTACTT", "switch fluorescence ratio": 0.989}
{"sequence": "CTGAAAAAGT", "switch fluorescence ratio": 1.03}
{"sequence": "CTGAAAGCAG", "switch fluorescence ratio": 1.41}
{"sequence": "CTGAACCAAT", "switch fluorescence ratio": 1.61}
{"sequence": "CTGAAGTGAA", "switch fluorescence ratio": 1.18}
{"sequence": "CTGAAGTGAC", "switch fluorescence ratio": 2.27}
{"sequence": "CTGAATAACG", "switch fluorescence ratio": 0.988}
{"sequence": "CTGACCGACG", "switch fluorescence ratio": 1.69}
{"sequence": "CTGACGCCGA", "switch fluorescence ratio": 1.6}
{"sequence": "CTGACGCGAG", "switch fluorescence ratio": 1.24}
{"sequence": "CTGACGTAAC", "switch fluorescence ratio": 3.6}
{"sequence": "CTGACGTCTG", "switch fluorescence ratio": 0.966}
{"sequence": "CTGACTGAAA", "switch fluorescence ratio": 0.982}
{"sequence": "CTGAGAGGAG", "switch fluorescence ratio": 1.02}
{"sequence": "CTGAGCCGGC", "switch fluorescence ratio": 1.03}
{"sequence": "CTGAGGCTGC", "switch fluorescence ratio": 1.63}
{"sequence": "CTGAGGGAAT", "switch fluorescence ratio": 1.01}
{"sequence": "CTGAGTAGAG", "switch fluorescence ratio": 0.981}
{"sequence": "CTGAGTCACT", "switch fluorescence ratio": 1.03}
{"sequence": "CTGATAATTC", "switch fluorescence ratio": 1.04}
{"sequence": "CTGATACCGT", "switch fluorescence ratio": 1.08}
{"sequence": "CTGATATGGA", "switch fluorescence ratio": 1.03}
{"sequence": "CTGATCATGG", "switch fluorescence ratio": 1.01}
{"sequence": "CTGATGAGCG", "switch fluorescence ratio": 1.01}
{"sequence": "CTGATGATCC", "switch fluorescence ratio": 1.04}
{"sequence": "CTGATGCAAG", "switch fluorescence ratio": 1.67}
{"sequence": "CTGATGGTTG", "switch fluorescence ratio": 1.02}
{"sequence": "CTGATTACAC", "switch fluorescence ratio": 0.976}
{"sequence": "CTGATTCGAC", "switch fluorescence ratio": 1.03}
{"sequence": "CTGATTGTGA", "switch fluorescence ratio": 0.988}
{"sequence": "CTGCACGAGA", "switch fluorescence ratio": 1.02}
{"sequence": "CTGCCAGTCA", "switch fluorescence ratio": 1.05}
{"sequence": "CTGCCATGTG", "switch fluorescence ratio": 1.19}
{"sequence": "CTGCCTCTCA", "switch fluorescence ratio": 1.01}
{"sequence": "CTGCCTTCCG", "switch fluorescence ratio": 2.28}
{"sequence": "CTGCGCAAAA", "switch fluorescence ratio": 3.49}
{"sequence": "CTGCGGCCTA", "switch fluorescence ratio": 1.03}
{"sequence": "CTGCGGGTGG", "switch fluorescence ratio": 1.01}
{"sequence": "CTGCGTTTAT", "switch fluorescence ratio": 1.01}
{"sequence": "CTGCTAGGC", "switch fluorescence ratio": 1.58}
{"sequence": "CTGCTAGGGC", "switch fluorescence ratio": 1.15}
{"sequence": "CTGCTCTAC", "switch fluorescence ratio": 2.29}
{"sequence": "CTGCTGGGGG", "switch fluorescence ratio": 1.03}
{"sequence": "CTGCTTGCTT", "switch fluorescence ratio": 0.988}
{"sequence": "CTGGAAGGAG", "switch fluorescence ratio": 1.01}
{"sequence": "CTGGAGGCCT", "switch fluorescence ratio": 0.971}
{"sequence": "CTGGATAAGT", "switch fluorescence ratio": 0.976}
{"sequence": "CTGGATGGC", "switch fluorescence ratio": 0.992}
{"sequence": "CTGGCAAATC", "switch fluorescence ratio": 2.16}
{"sequence": "CTGGCACTG", "switch fluorescence ratio": 0.971}
{"sequence": "CTGGCCAAGC", "switch fluorescence ratio": 1.04}
{"sequence": "CTGGCCGGGT", "switch fluorescence ratio": 1.04}
{"sequence": "CTGGCTGTCG", "switch fluorescence ratio": 1.01}
{"sequence": "CTGGGATACT", "switch fluorescence ratio": 1.65}
{"sequence": "CTGGGCATTG", "switch fluorescence ratio": 0.995}
{"sequence": "CTGGGCGTTA", "switch fluorescence ratio": 0.967}
{"sequence": "CTGGGCTATT", "switch fluorescence ratio": 1.05}
{"sequence": "CTGGGGAACG", "switch fluorescence ratio": 1.05}
{"sequence": "CTGGGGACG", "switch fluorescence ratio": 0.816}
{"sequence": "CTGGGTGAAA", "switch fluorescence ratio": 1.02}
{"sequence": "CTGGTAAACC", "switch fluorescence ratio": 1.05}
{"sequence": "CTGGTACGGT", "switch fluorescence ratio": 1.03}
{"sequence": "CTGGTAGGCA", "switch fluorescence ratio": 0.999}
{"sequence": "CTGGTCCCGC", "switch fluorescence ratio": 1.05}
{"sequence": "CTGGTGCTTC", "switch fluorescence ratio": 1.04}
{"sequence": "CTGGTGGAAG", "switch fluorescence ratio": 0.946}
{"sequence": "CTGGTGGCTA", "switch fluorescence ratio": 0.978}
{"sequence": "CTGGTTGCAG", "switch fluorescence ratio": 0.977}
{"sequence": "CTGGTTGCCA", "switch fluorescence ratio": 0.978}
{"sequence": "CTGTACATGC", "switch fluorescence ratio": 1.54}
{"sequence": "CTGTATGCTT", "switch fluorescence ratio": 1.02}
{"sequence": "CTGTCCTGTA", "switch fluorescence ratio": 1.01}
{"sequence": "CTGTCGCATT", "switch fluorescence ratio": 2.86}
{"sequence": "CTGTCGGATC", "switch fluorescence ratio": 0.975}
{"sequence": "CTGTCTTAAA", "switch fluorescence ratio": 0.952}
{"sequence": "CTGTGAGCAG", "switch fluorescence ratio": 1.07}
{"sequence": "CTGTGCAGTG", "switch fluorescence ratio": 1.03}
{"sequence": "CTGTGCCAGA", "switch fluorescence ratio": 1.02}
{"sequence": "CTGTGTACCA", "switch fluorescence ratio": 1}
{"sequence": "CTGTGTGTGG", "switch fluorescence ratio": 1}
{"sequence": "CTGTGTTCGT", "switch fluorescence ratio": 1.01}
{"sequence": "CTGTGTTGAC", "switch fluorescence ratio": 1.01}
{"sequence": "CTGTTAGAGC", "switch fluorescence ratio": 1.05}
{"sequence": "CTGTTCGGGG", "switch fluorescence ratio": 1.01}
{"sequence": "CTGTTGATGT", "switch fluorescence ratio": 1}
{"sequence": "CTGTTGGGAG", "switch fluorescence ratio": 0.985}
{"sequence": "CTGTTGGGC", "switch fluorescence ratio": 0.991}
